22 molecules from article PMC12136788 can be followed below.

First the molecules themselves.
T1: UNK ZnF1-6 (called full-length) (human, UniProt Q9C0B0 30-357)
T1 sequence: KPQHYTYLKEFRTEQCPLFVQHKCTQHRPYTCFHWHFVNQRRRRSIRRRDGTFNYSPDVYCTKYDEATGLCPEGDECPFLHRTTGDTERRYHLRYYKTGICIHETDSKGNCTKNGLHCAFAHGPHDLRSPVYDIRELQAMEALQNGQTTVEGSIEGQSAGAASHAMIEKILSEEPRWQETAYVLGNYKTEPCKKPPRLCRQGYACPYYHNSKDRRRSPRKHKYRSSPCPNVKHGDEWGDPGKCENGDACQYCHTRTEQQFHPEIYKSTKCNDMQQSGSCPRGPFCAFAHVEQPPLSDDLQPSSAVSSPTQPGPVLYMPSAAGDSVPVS

B1: chrX:85271413:85271529:+|CDS|ENSG00000147180|unk|total|mutant (ssRNA)
RNA: GGGAGUUCUACAGUCCGACGAUCUGUGAUAAAGGUUUUCAUCGUCCUUCUGAGCUCAAAAAGCACCGUGAUAUCCAUAAGGGCCGGAAGAUUCAUCAGUGCAGGCACUGUGACUUUAAAACAUCCGAUCCAUUUAUUCUCCGUCAACAGAGGAUUGAGCAUCA
B2: chr1:168200228:168200338:+|3pUTR|ENSG00000143155|unk|total|mutant (ssRNA)
RNA: GGGAGUUCUACAGUCCGACGAUCUAUUUUCUGGAGUUAAAUUUGGAUGAUUUCUAAAUUAUCACAAAGUGGGACCUCAGCAGCCGUGAUGUGUGUGUCUCAUGAGCAGUGAGCACAGUCUGCAUUCAUCAUGAAACACUAUCUCAACAGAGGAUUGAGCAUCA
B3: ENSG00000101945:stop:overlap|stop_codon|ENSG00000101945|stop_codon|NA|stop_codon (ssRNA)
RNA: GGGAGUUCUACAGUCCGACGAUCAGAAGCGGGUCCGUAUUGAAUGCAAGUGUGGGACUGAGUCCUGCCGCAAAUACCUCUUCUAGCCCUUAGAAGUCUGAGGCCAGACUGACUGAGGGGGCCUGAAGCUACAUGCACCUCCCCCAACAGAGGAUUGAGCAUCA
B4: ENSG00000070961:be:win_501|CDS|ENSG00000070961|bound_else_gene|NA|bound_elsewhere_windowed (ssRNA)
RNA: GGGAGUUCUACAGUCCGACGAUCGUUAGUAACAGCUUUCAAUGACUGGAGUAAGGAAAAACAGUUUAGAGGUUUGCAGAGCCGAAUUGAACAAGAACAGAAGUUCACUGUCAUCAGGGGUGGUCAGGUCAUUCAGAUACCUGUCAACAGAGGAUUGAGCAUCA
B5: chr20:56404979:56405080:+|3pUTR|ENSG00000101138|unk|FALSE|unique (ssRNA)
RNA: GGGAGUUCUACAGUCCGACGAUCCCGCGCCCAGCCUUCCUGAAGCUUUUUAGAACAUGACAGUACUUCUCUGGAUUCAGCACUAGCAGAGUCAGAGAACUCUGAACUCCCCUUGUACAAACAUAAACUUUGCUUUAUAUUUAUCAACAGAGGAUUGAGCAUCA
B6: chr11:83166318:83166419:+|CDS|ENSG00000165494|unk|FALSE|unique (ssRNA)
RNA: GGGAGUUCUACAGUCCGACGAUCGGGACAAAACCAGGGAGAUCGAGUACUAGAAAGCGAUCAAGAUCUCGAUCACCCAAGUCUAGGUCACCAAUUAUACAUUCCCCAAAGAGAAGAGAUAGGCGGUCACCCAAACGAAGGCAACAACAGAGGAUUGAGCAUCA
B7: chr14:71723713:71723820:+|CDS|ENSG00000197555|unk|total|mutant (ssRNA)
RNA: GGGAGUUCUACAGUCCGACGAUCGCUGCCCCCUCACAGCUCGCACCAUCCUUCUCCUCCUCUUCCUCCUCCUCCUCUGGUCCCCGGAGUUUUUACCCUCGCCAGGGCGCUACCCGCAAGUACCUGAUUGGAUGGAAAAAACCCCAACAGAGGAUUGAGCAUCA
B8: ENSG00000198589:be:win_8451|CDS_3pUTR|ENSG00000198589|bound_else_gene|NA|bound_elsewhere_windowed (ssRNA)
RNA: GGGAGUUCUACAGUCCGACGAUCGCUGUCUUACGACCAGAGGUGCAUCAUUUCUGGCAUGGCUUCAGGAAGCAUUGUGCUAUUUUACAACGACUUUAACCGGUGGCAUCAUGAAUACCAAACCCGCUACUGAUGGUGACAGCUCAACAGAGGAUUGAGCAUCA
B9: chr16:21843385:21843581:-|three_prime_utr|ENSG00000185864|control|control|control (ssRNA)
RNA: GGGAGUUCUACAGUCCGACGAUCGGAAAUAAAAUUGUCCUGAAAGACGUCAUUACUCUACGGAGACAUGUGGAAACAAAAGUUAGAGCUAAAAUCCGUAAGAGGAAGGUGACAACGAAAAUCAACCAUCAUGACAAAAUCAAUCAACAGAGGAUUGAGCAUCA
B10: chr11:108106880:108106981:+|3pUTR|ENSG00000166266|msi1|total|mutant (ssRNA)
RNA: GGGAGUUCUACAGUCCGACGAUCUCCGUGGUAUGGCAAUAAGACACUUCAGAGGCUAUCUUAACCUCUGAAUACCCAUCUUCCCGUUUAAAGACAGAGACAUCCCAUCUGGAAAAUGUUAACUUGUGUUGCCAUCUCGUUGCCCAACAGAGGAUUGAGCAUCA
B11: chr2:73700624:73701305:-|CDS|ENSG00000204872|control|control|control (ssRNA)
RNA: GGGAGUUCUACAGUCCGACGAUCACCGUGGUCAGGGGAUAGCAAAAGCCCUGGUCAGGACUGUCCUCCAGUUUGCCCGGGACUAGGGCUACAGUGAAGUUGUCCUGGACACCAGCAACAUCCAGCUCUCUGCCAUGGGCCUCUCAACAGAGGAUUGAGCAUCA
B12: chr11:35231809:35232301:+|3pUTR|ENSG00000026508|msi1|total|mutant (ssRNA)
RNA: GGGAGUUCUACAGUCCGACGAUCACAACACCAAGAAUUGAUUUUGCCGCCAACAUUCAUUCAAUACUGUUAUAUCAGAGGAGCCGGAGAGAGGAAACAUUUGACUUAUCUGGAAAAGCAAAAUGUACUUAAGAAUAAGAAUAACAACAGAGGAUUGAGCAUCA
B13: chr14:70725707:70725808:-|3pUTR|ENSG00000006432|unk|total|mutant (ssRNA)
RNA: GGGAGUUCUACAGUCCGACGAUCGUCGAAUAUCAGCUAUUUCAUAUGGUUCACCCUAAUGUACCUGCCUCUCUCUUUGGCUUCCGGUCUGAGAAUGACUUGUCUUUGUCAAGGUAUACUAUUGUCCGAAACGCAUUACCAAAUCAACAGAGGAUUGAGCAUCA
B14: chr19:6380113:6380214:-|3pUTR|ENSG00000125651|msi1|total|mutant (ssRNA)
RNA: GGGAGUUCUACAGUCCGACGAUCACUUCAGGCUCUCAGUGACCCUUCGACAUCCUGCUUGCUCCCUGACUCCCAGGGCCCCGCCGUCCGCAAUUCUGGAAAAGUUAAGCCAUCUCCUCCUCUGGCCCUUCCUUCUGGAAUCUUCAACAGAGGAUUGAGCAUCA
B15: chr7:139079551:139079652:-|CDS|ENSG00000105939|unk|total|mutant (ssRNA)
RNA: GGGAGUUCUACAGUCCGACGAUCAAUGCUGAUGGAGUGGCCACAGAUAUAACUUCUACCAGAUCCUUAAAUUACAAAAGCACCCGCAGCGGUCACAGAGAAAUAUCAUCACCCCGGAUUCAGGAUGCUGGACCUGCUUCCCGACAACAGAGGAUUGAGCAUCA
B16: chr2:9585027:9585123:-|3pUTR|ENSG00000134308|msi1_unk|FALSE|overlapping (ssRNA)
RNA: GGGAGUUCUACAGUCCGACGAUCGGAAAACUUCAUUCCUUGAUUUGUGUUUGUCUUGGCCUUCCUGGUGUGCAGUACUGCUGUAGAAAAGUAUUAAUAGCUUCAUUUCAUAUAAACAUAAGUAACUCCCAAACACUUAUGUAGCAACAGAGGAUUGAGCAUCA
B17: chr4:108667705:108667793:+|3pUTR|ENSG00000198856|msi1_unk|total|mutant (ssRNA)
RNA: GGGAGUUCUACAGUCCGACGAUCUCUGGACAGUUGAUCAGCUUUACCUAUGGUGCUUUGCCUUUAACCCGAGUGUGUGAUGGCCGAUUAUUUCAGAUAUGUAUGUAAAACUGUUUCCUGAACAAUAAGAUGUAUGAACGGAGCCAACAGAGGAUUGAGCAUCA
B18: chr9:132694550:132694651:+|3pUTR|ENSG00000125484|unk|FALSE|bound_elsewhere (ssRNA)
RNA: GGGAGUUCUACAGUCCGACGAUCUUCCUGAAGAUUACAUAUCAGUGUCCUGCGUUUUUAUCUAAUAUUAGAGCUGAGGUUCCUAGGAAAAUUUUGAAGUGGGGAAGAUUAUGGAGAAAAUGAAAUGGAAAUUUGGGGAGGGUGCAACAGAGGAUUGAGCAUCA
B19: chr16:66721972:66722075:-|3pUTR|ENSG00000135720|unk|total|mutant (ssRNA)
RNA: GGGAGUUCUACAGUCCGACGAUCUUUUUAAUUCAGUUUUUUAAAAAAACAAAUGUAUUGUGGCUUCCAGUUACCAGGUUGUCCCGGUAAUGACAGUAAACUGACUGCCGAAUGAUAAUUGUGGUACCGUGACCAACCGAUGCCCAACAGAGGAUUGAGCAUCA
B20: chr20:63196482:63196583:-|3pUTR|ENSG00000149658|msi1|FALSE|unique (ssRNA)
RNA: GGGAGUUCUACAGUCCGACGAUCUGAUUUUUGCCCAGAUGGAUCUGCAUUUAUUUGUACUUUUUCUAUGUAUUAUAAUCCUGUAGAAGUCACUAAUAAAGGAGUAUUUUUUUUGUCAGCUUAUCAAUCAGACUGAUCUAAUGUCAACAGAGGAUUGAGCAUCA
B21: chr1:86745841:86745942:+|3pUTR|ENSG00000097033|msi1|total|mutant (ssRNA)
RNA: GGGAGUUCUACAGUCCGACGAUCAUGGUGCAGUUCAGAAUUGUUUAAAUAAGCUCUGUGCCACUGAGCUUAAUCUGAAAGUACCGUGACAUGUGAAGGAUGCACAUAUGAAUGAAAAACUAAAAUAAUUGCCGGCUCUUCUAUCAACAGAGGAUUGAGCAUCA
B22: chr15:58597255:58597356:-|3pUTR|ENSG00000137845|unk|total|mutant (ssRNA)
RNA: GGGAGUUCUACAGUCCGACGAUCUGGAAAAGGAACCCAAUUUUCUUAUGAACAGAUAUUUUUAACUUAAUGGCACAAAGUCUCCGAAUAUUAUUAUGUGCCCCGUGUUCCCUGUUCUUCGUUGCUGCAUUUUCUUCACUUGCACAACAGAGGAUUGAGCAUCA

Some of the results follow.

In the test the target is T1, UNK ZnF1-6 (called full-length). The test is described as follows: nsRBNS (natural sequence RNA bind-n-seq); RBNS binding buffer (assumed for nsRBNS): 25 mM Tris pH 7.5, 150 mM KCl, 3 mM MgCl2, 0.01% Triton X-100, 500 ug/ml BSA, 20 U/ml SUPERase-In, 4 C; UNK is unkempt and MSI1 is Musashi-1; names of the RNAs are library labels; protein concentration not given here; high values mean tight binding.
B1: the binding signal is 0.362 enrichment R.
Regarding B2, the binding signal turned out to be 0.517 enrichment R.
B3 returned a binding signal of 0.806 enrichment R.
On to B4, for which the binding signal was determined as 0.893 enrichment R.
As to B5, the binding signal was 0.704 enrichment R.
B6 gave a binding signal of 0.555 enrichment R.
Consider B7, for which the binding signal stood at 0.929 enrichment R.
Consider B8, for which the binding signal amounted to 0.416 enrichment R.
Molecule B9 registered a binding signal of 0.231 enrichment R.
The value for B10 was 0.365 enrichment R; that for B11 was 0.788 enrichment R; that for B12 was 0.502 enrichment R.
As for B13, the figure is 0.463 enrichment R; as for B14, 0.783 enrichment R; as for B15, 0.623 enrichment R.
B16 returned a binding signal of 1.24 enrichment R.
As for B17, the figure is 0.465 enrichment R.
B18 returned a binding signal of 1.38 enrichment R.
For the molecule B19, the binding signal worked out at 0.37 enrichment R.
With B20, the binding signal turned out to be 0.612 enrichment R.
On to B21, for which the binding signal worked out at 0.293 enrichment R.
Regarding B22, the binding signal was determined as 0.802 enrichment R.
